Values marked as one replicate rest on one cluster of the flow cell; about a third of the high ones do not repeat.
tested on: ATP; experiment: switch fluorescence ratio, 500 uM ATP over buffer (Cy3 cluster intensity, sum of 5 cycles each) (fold (ratio)); higher = stronger signal-on switching upon ATP binding; sequences stand for … in TCGTCGGCAGCGTCAGATGTGTATAAGAGACAGTTTTTTTTTTTTTTTTTTTTTTTTT…TC; settings: aptamer strand: ATP DNA aptamer (quencher-CACCTGGGGGAGTATTGCGGAGGAAGG + anchor), 100 nM annealed; ATP concentration: 500 uM; one replicate
Summary of the method: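 Exposure to 500 uM ATP lasted 15 min at 22 °C before imaging, and a selection-buffer image was taken beforehand, for Cy3-labelled switching-strand clusters on a modified Illumina MiSeq flow-cell annealed to 100 nM quencher-labelled ATP aptamer. Five buffer/ATP cycles were run with NaOH stripping and re-annealing between them. The fluorescence ratio per cluster is summed target-cycle over summed buffer-cycle Cy3 intensity, averaged per switch-domain sequence. Clusters outside 100-1000 RFU were excluded.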

Sequence	switch fluorescence ratio
GGCTGGACGA	0.977
GGCTGGAGCA	1.06
GGCTGGATAT	0.986
GGCTGGGGAA	1.01
GGCTGGTGGT	0.978
GGCTGTACTG	0.976
GGCTGTCGCT	1
GGCTGTTTTG	0.989
GGCTTAGAAC	1.02
GGCTTAGTAT	0.957
GGCTTCACTG	0.961
GGCTTCACTT	1
GGCTTCATGA	1.04
GGCTTGCATT	0.988
GGCTTTAACG	0.999
GGCTTTAAGG	1
GGCTTTACTT	0.988
GGGAAACTGT	0.998
GGGAACGCTA	1.13
GGGAACTCAT	0.988
GGGAACTTCG	1.01
GGGAATCAGA	0.962
GGGAATCGTT	1.02
GGGAATCTCG	0.969
GGGACATGAA	1.01
GGGACCGTCC	1.18

Sequence	switch fluorescence ratio
GGGACTACTG	1.07
GGGACTCGTT	1
GGGACTGTCG	0.842
GGGACTTTC	1.06
GGGAGAAAGA	1.02
GGGAGCGTCA	1.02
GGGAGCTCGG	1.01
GGGAGCTCGT	1.01
GGGAGGCCTC	0.985
GGGAGTTACT	1.02
GGGAGTTCAT	1.02
GGGAGTTCTT	0.975
GGGATACGTC	1.05
GGGATCCATT	0.996
GGGATCTTAG	1.03
GGGATGATTA	0.961
GGGATGCAGT	1.01
GGGATGCGGA	1.11
GGGATGGCG	1.14
GGGATGGCTA	0.968
GGGATTATCT	1.01
GGGATTGATG	1.04
GGGATTTCCT	1.06
GGGCAAAATT	0.97
GGGCAAAGAA	1.02
GGGCAAGAGG	1.09

Sequence	switch fluorescence ratio
GGGCAAGGAC	1.31
GGGCAAGGGA	1.04
GGGCACGGCG	1.04
GGGCAGGTCT	0.968
GGGCAGGTTA	1.04
GGGCAGTCTG	1
GGGCATAAAA	1.01
GGGCATTCTA	0.986
GGGCCAAGAT	1.08
GGGCCAATCA	1.02
GGGCCCGGGG	0.967
GGGCCGGTCA	0.971
GGGCCTCTGC	1
GGGCCTGGAT	1.01
GGGCCTTAGG	1
GGGCCTTCCC	1.15
GGGCGACAAA	0.989
GGGCGACGAT	0.977
GGGCGAGGTG	1.03
GGGCGCGGCC	1
GGGCGGGGT	1.03
GGGCGGTAGT	1
GGGCGGTGAC	1.02
GGGCGGTGGC	0.977
GGGCGTAGAT	1.02
GGGCTAAGTA	0.972

Sequence	switch fluorescence ratio
GGGCTACTAA	1.01
GGGCTACTTT	1.02
GGGCTAGTGC	1.05
GGGCTCACCC	1.04
GGGCTCATTA	0.977
GGGCTCCTCT	1.03
GGGCTCGTGC	1.01
GGGCTGACGA	1.19
GGGCTGCGAA	0.988
GGGCTTCGGG	1.05
GGGGAACCAC	1.08
GGGGACAA	0.986
GGGGACGCAA	3.29
GGGGACTGCT	0.976
GGGGAGATAG	1.02
GGGGAGTTGC	1.03
GGGGATACCA	1.02
GGGGATCTTG	1.03
GGGGCAGTGC	1.17
GGGGCCAAG	0.982
GGGGCCGAGT	0.962
GGGGCCTTTT	0.969
GGGGCGCCCG	0.97
GGGGCGTCGA	1.01
GGGGCTAAGT	0.971
GGGGCTGTG	0.983

Sequence	switch fluorescence ratio
GGGGCTTGCT	1
GGGGGAAATC	1.01
GGGGGAACGA	1.03
GGGGGACGAT	1.03
GGGGGATCCT	1.01
GGGGGATGAC	1.03
GGGGGATGCA	0.936
GGGGGCAGTA	1.02
GGGGGCGAGC	1.12
GGGGGCTCTC	1.01
GGGGGGCTG	0.998
GGGGGTCTTC	0.953
GGGGGTTCCA	0.986
GGGGGTTTTA	0.962
GGGGTAACA	1.04
GGGGTACAGA	1.13
GGGGTACTG	0.97
GGGGTATCCC	0.989
GGGGTCGTGG	0.999
GGGGTCTCGC	0.974
GGGGTCTCGG	1.02
GGGGTGCTGT	0.968
GGGGTGTGTT	1.03
GGGGTTCGAC	0.941
GGGTAAAGAC	1.06
GGGTAAAGCG	0.968

Sequence	switch fluorescence ratio
GGGTAACGAA	1.02
GGGTAAGTGG	1
GGGTAGACTC	0.973
GGGTAGATTG	0.983
GGGTATATC	0.936
GGGTCATATC	1.01
GGGTCCCGCG	1.03
GGGTCGAACC	1.02
GGGTCGATCA	0.952
GGGTCGGTCA	0.998
GGGTCGTGGG	0.986
GGGTCTGGG	0.999
GGGTCTTAGT	1.01
GGGTGAAAG	0.98
GGGTGACACG	0.965
GGGTGACGCT	1.03
GGGTGATAGC	0.949
GGGTGCAGG	1
GGGTGTAAAG	1.05
GGGTGTACG	0.992
GGGTGTCTAT	0.943
GGGTTACTTG	0.956
GGGTTATGTA	0.977
GGGTTCACTA	0.984
GGGTTGAAAG	0.996
GGGTTGGATA	1

Sequence	switch fluorescence ratio
GGGTTGTGAC	0.972
GGGTTTAAAG	0.924
GGGTTTAAC	1.01
GGGTTTGGCA	0.996
GGTAAACCAG	0.993
GGTAAAGCGA	1.03
GGTAAATCGA	0.97
GGTAAATGAA	1.01
GGTAACGTCT	0.951
GGTAATCATG	1.03
GGTACAAAAG	1.01
GGTACAGGGT	1.03
GGTACCGGCT	0.929
GGTACCTCG	1.03
GGTACCTTTT	0.99
GGTACGGGAT	1.09
GGTACGTAGG	1.05
GGTACTAGG	0.98
GGTAGAGTGC	1.08
GGTAGCAGTG	0.922
GGTAGCCACA	0.963
GGTAGCCCGT	0.936
GGTAGCTTCC	2.15
GGTAGGGC	1.01
GGTAGTTTGG	1.04
GGTATATTTG	1.13

Sequence	switch fluorescence ratio
GGTATCCTAG	0.926
GGTATCGCTG	0.887
GGTATGAGCC	1.02
GGTATGAGCT	1.01
GGTATGCTAG	1.03
GGTATTAAC	0.997
GGTATTTGGA	0.977
GGTCAAGATT	0.991
GGTCAATGCC	1.05
GGTCACATCT	1.02
GGTCACTTAC	1.17
GGTCAGGCCG	1.04
GGTCATCCTA	0.949
GGTCATGGAT	1.03
GGTCATGTCA	1.03
GGTCATTTCC	1.09
GGTCCAATGG	0.993
GGTCCACAAA	0.968
GGTCCGACT	1.02

— the supplement of paper PMC10126150
